According to article PMC7819943, “Rice protein-binding microarrays: a tool to detect cis-acting elements near promoter regions in rice”:
The list shows a part of the results.

biological target: T1, OsWOX13 (Oryza sativa, UniProt Q5QMM3 1-267); test: protein-binding microarray (RPBM); PBS, 2% BSA, 51.3 ng/ul salmon testes DNA, 50 uM zinc acetate, 200 nM TF, 25 C, 1 h; high values mean tight binding; details: protein: recombinant; tags: N-terminal polyhistidine and DsRed monomer fusion (pET32a); label: CyDye5-dUTP incorporated in the synthesized complementary strand; 3' TTTTT single-stranded linker to array surface; dsDNA, one strand shown
T1 sequence: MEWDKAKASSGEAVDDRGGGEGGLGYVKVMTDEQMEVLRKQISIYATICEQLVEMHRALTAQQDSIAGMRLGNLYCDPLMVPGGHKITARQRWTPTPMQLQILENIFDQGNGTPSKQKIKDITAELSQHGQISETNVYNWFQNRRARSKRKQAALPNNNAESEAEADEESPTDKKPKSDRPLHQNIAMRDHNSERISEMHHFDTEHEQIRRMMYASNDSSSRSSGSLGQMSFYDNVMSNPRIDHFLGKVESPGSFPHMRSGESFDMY
How it was run: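 Ni–NTA purification followed expression in E. coli BL21-CodonPlus of transcription factors fused N-terminally to a polyhistidine tag and DsRed. At 200 nM in PBS with 2% BSA, salmon testes DNA and 50 µM zinc acetate, the protein was incubated for 1 h at 25 °C with a custom Agilent array that had been primer-extended with Cy5-dUTP and blocked with 2% BSA. After washing, the array was read on an Axon 4000B scanner. The binding signal is per-feature fluorescence intensity in arbitrary units.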

| Sequence | binding signal |
| --- | --- |
| AATTACAAGGGCCAATCAATCAATCAATGATGGCTCGTGCCGGAGTCACCTAGTGCAG | 45300 fluorescence intensity (a.u.) |
| ACAGTAATTAAGCATCCACAAGTACGTGACGACGCGGGCACGGAGTCACCTAGTGCAG | 9160 fluorescence intensity (a.u.) |
| AAATAATTACACAATAATTATATGTAAATTGCGAGACGAACGGAGTCACCTAGTGCAG | 50700 fluorescence intensity (a.u.) |
| AAATTACGTAATTATAATTTATTTTGTTGTGAGTTGTTTTCGGAGTCACCTAGTGCAG | 24100 fluorescence intensity (a.u.) |
| ATGAGATTGATGAGCAGTGAGGACGGCTAGAGATAGCTTACGGAGTCACCTAGTGCAG | 18900 fluorescence intensity (a.u.) |
| ATAGTATAATCAAGCTGATATAAACAAGTGCTCCCATGTGCGGAGTCACCTAGTGCAG | 3430 fluorescence intensity (a.u.) |
| CCTAATTTACTACTGCGTCTCTTATGTTCAGTATCTGTTCCGGAGTCACCTAGTGCAG | 27500 fluorescence intensity (a.u.) |
| TTAATTCTCATTCTTTAATTAATTTGGCCGTGGATTTATTCGGAGTCACCTAGTGCAG | 3430 fluorescence intensity (a.u.) |
| CAAGGTAATAGATTACTATAGTTTATCAAATTCTCCATGACGGAGTCACCTAGTGCAG | 11200 fluorescence intensity (a.u.) |
| TTCTGATTTGCCCCTATCTTATTGAGATTGCTTGTGTGATCGGAGTCACCTAGTGCAG | 30600 fluorescence intensity (a.u.) |
| CCACAAATCAGTTCATTTGACAAGCCAACACAGTGATTAGCGGAGTCACCTAGTGCAG | 12900 fluorescence intensity (a.u.) |
| TGTAAACTGCCTCATCAACCTTCTGCGCCCGGGCATACTTCGGAGTCACCTAGTGCAG | 4150 fluorescence intensity (a.u.) |
| ATCCAATCATTTCAAAACGTATTCCTCAGCACATTAAACGCGGAGTCACCTAGTGCAG | 19400 fluorescence intensity (a.u.) |
| CCGATTCAAATTTGAATTTAAATATTTTCTATATATAGTACGGAGTCACCTAGTGCAG | 3280 fluorescence intensity (a.u.) |
| CCAATAGACAATTTTGACTATGACAGAAGGACAAGCTATACGGAGTCACCTAGTGCAG | 8840 fluorescence intensity (a.u.) |
| TCATTAACAGCAGCAAATCAGCAGAAGCACTGCTGATCTTCGGAGTCACCTAGTGCAG | 6140 fluorescence intensity (a.u.) |
| TTTCCAGTTAACAGATGATTCCCAAGTTATGGTCAAAACACGGAGTCACCTAGTGCAG | 9050 fluorescence intensity (a.u.) |
| AAGCTATGATGATTAGTGAAACAAAAGCAATGCTGGAAGACGGAGTCACCTAGTGCAG | 7030 fluorescence intensity (a.u.) |
| CTAAACACGTTGATGGGCCTGAATGGAGGAAGCCCATCGACGGAGTCACCTAGTGCAG | 3790 fluorescence intensity (a.u.) |
| GGAATCAATCGAGAGATTAGAGTGTACGTGAGAGCTAGCGCGGAGTCACCTAGTGCAG | 4160 fluorescence intensity (a.u.) |
| CAGAAACTGAAATACCAATTGATTCTTCCAATTCCCTGAACGGAGTCACCTAGTGCAG | 6740 fluorescence intensity (a.u.) |
| CCTGATGATATATACTTGTTAAACTGCAGCACTCGAATCACGGAGTCACCTAGTGCAG | 13000 fluorescence intensity (a.u.) |
| TTCAAGCTTAATTTTAAGATTGATTTTGACATATTTTCAACGGAGTCACCTAGTGCAG | 9580 fluorescence intensity (a.u.) |
| GGGGTTGGAAATGATGATCACCATCACTACAACATGTCATCGGAGTCACCTAGTGCAG | 3160 fluorescence intensity (a.u.) |
| GTTATGATTGGTTGAGACGAGAGAATAAGTGAAGAAATTGCGGAGTCACCTAGTGCAG | 40300 fluorescence intensity (a.u.) |
| CAAATGTAATTTCGCACTATTCTTATCTAATGTTTGACATCGGAGTCACCTAGTGCAG | 4370 fluorescence intensity (a.u.) |
| GACTTCATAATTAATACTTTAATTAAAACACTTATTCTACCGGAGTCACCTAGTGCAG | 20000 fluorescence intensity (a.u.) |

| Sequence | binding signal |
| --- | --- |
| CTGTTGACATATAATTCTACACCCTGAAATGGTAAAACTGCGGAGTCACCTAGTGCAG | 4860 fluorescence intensity (a.u.) |
| TTAACAGGGACATTGATCCTTGATTAATAATGCTGATTAGCGGAGTCACCTAGTGCAG | 14700 fluorescence intensity (a.u.) |
| GGTGACCGTTAAACGCAGATTAAATTTGATGAATTAAAGCCGGAGTCACCTAGTGCAG | 6840 fluorescence intensity (a.u.) |
| AATCAATCTACAGCAACAAATCAAAATCTCTCGGTTTAGCCGGAGTCACCTAGTGCAG | 15700 fluorescence intensity (a.u.) |
| TATTCCATCCGTTTCAATCATATTATAAGTTGCTTTGATTCGGAGTCACCTAGTGCAG | 10300 fluorescence intensity (a.u.) |
| TGCAACTATGATTATCCGTATCCAACTTTGATTTTCCGTTCGGAGTCACCTAGTGCAG | 6010 fluorescence intensity (a.u.) |
| CGGGCTTCTTGATTTGCGGATTGTTGTTGTGGATCGCCAGCGGAGTCACCTAGTGCAG | 5040 fluorescence intensity (a.u.) |
| TTAACAGTCAATCCCTTTAATTTAGATTTAGTATGATCTGCGGAGTCACCTAGTGCAG | 41700 fluorescence intensity (a.u.) |
| TGTAATTTCAGTGCTAATTTGGAAGGGAACTCAGCTAATCCGGAGTCACCTAGTGCAG | 19200 fluorescence intensity (a.u.) |
| AACAAATGTTTTATTAATTATTTAATCTTTTGGATTTAATCGGAGTCACCTAGTGCAG | 3320 fluorescence intensity (a.u.) |
| TTACCATCAATCTCAATCTTTCGCCGTTTAATTTCCTCACCGGAGTCACCTAGTGCAG | 7580 fluorescence intensity (a.u.) |
| GCCATAATCAATTACTGAAGTAATCCACTCTCAATTGAACCGGAGTCACCTAGTGCAG | 39800 fluorescence intensity (a.u.) |
| AGGTCGTTGATTGCTTAAGTTTCAATCTAATGCTAAATTTCGGAGTCACCTAGTGCAG | 10700 fluorescence intensity (a.u.) |
| AGCTCAATTTAGTCTTTCAGGTTTTATTTTGTCCACGTAGCGGAGTCACCTAGTGCAG | 3620 fluorescence intensity (a.u.) |
| TCATTAATTAAGAGGTAACAAGTACAACATATCACAGCTACGGAGTCACCTAGTGCAG | 11400 fluorescence intensity (a.u.) |
| GATCAATCATTTGCTGAGCTCGTGAATTCTGTCTGGTTCACGGAGTCACCTAGTGCAG | 24300 fluorescence intensity (a.u.) |
| ATAAAATAAATGATAATTACATAAATTTCTTTAAATAAGACGGAGTCACCTAGTGCAG | 10900 fluorescence intensity (a.u.) |
| CCAACAGATTCATTATTGTTCAATCTTAGTCATGCATTTACGGAGTCACCTAGTGCAG | 3220 fluorescence intensity (a.u.) |
| GAAATATGTGACAGGTAGAATTTTCTAAAGTTCTACAGAACGGAGTCACCTAGTGCAG | 3150 fluorescence intensity (a.u.) |
| TCTATTACTATTAATTTAAACATATGTTTCTTCGAATTTACGGAGTCACCTAGTGCAG | 3980 fluorescence intensity (a.u.) |
| GATAACTGGTGTGGAGGCTGCGGCGTGGGTGGTAAAGCACCGGAGTCACCTAGTGCAG | 3220 fluorescence intensity (a.u.) |
| AAAATTTTCCTACGTGATTGTTTGAATCATAGGAATAGCTCGGAGTCACCTAGTGCAG | 19900 fluorescence intensity (a.u.) |
| TTAATTAATTTCTCTAATGATTCTCAATCTTGTGTTCTTCCGGAGTCACCTAGTGCAG | 28300 fluorescence intensity (a.u.) |
| ATCGATCATTGACAGAAATCACCCATACCTTGAGATTCTTCGGAGTCACCTAGTGCAG | 23400 fluorescence intensity (a.u.) |
| GAGATTACAAATGAATAAATTAGCTATCATAAAGTTGAAACGGAGTCACCTAGTGCAG | 5150 fluorescence intensity (a.u.) |
| AGCTTATAGTCAATTATTGTACTTGCTCTAAGTATAGGCTCGGAGTCACCTAGTGCAG | 12200 fluorescence intensity (a.u.) |
| TTAATCGATGATTGATAATACGTGAACATGCTATATTAGTCGGAGTCACCTAGTGCAG | 45100 fluorescence intensity (a.u.) |
